Read counts are not given, so values of variants with three or more changes are uncertain.

B1: CPEB3 Ribozyme (parent)
chain: UAACAGGGGGCCACAGCAGAAGCGUUCACGUCGCAGCCCCUGUCAGAUUCUGGUGAAUCUGCGAAUUCUGCUGUAUAUCUC

Variants of B1 are the subject of the data set. The experiment in a line: self-cleavage, relative activity (ratio to wild type); higher = more cleavage; in vitro, sequencing. Put shortly:
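Relative activity was defined as the cleaved/total read fraction for a variant divided by the same fraction for the unmutated ribozyme. CPEB3 self-cleaving ribozyme libraries were made by rounds of error-prone PCR, barcoded, and transcribed in vitro with T7 RNA polymerase for 5 hours at 37°C, and cleavage ran through transcription plus a 15 min DNase I step before EDTA. Illumina sequencing of template-switched reverse transcripts gave the reads, and DNA sequencing mapped the barcodes. Averages come from three batches, using variants with at least 5 reads.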
As for C17G G33A A57G U60C A64G U72C U80A, the self-cleavage was determined as 0.05. For the variant A18G C32A U43C C81A, the self-cleavage came to 0.12.

For the variant A18G C40A U41A A64G, the self-cleavage came to 0.22.

As for A18G C32U C40U U67C, the self-cleavage came to 0.08. In the case of A18C C29U C39A A45U U58A it was 0.08; in that of A18G A20G U25C U43A U72A U74C, 0.91; in that of A18G U41A A47G, 0.23. In the case of A18G A21G U58C U67A it was 0.17; in that of A18G U41C A47G U72C, 0.37.

Regarding A18G A35G A45U G63A U80G, the self-cleavage amounted to 0.15.

Turning to A18G G36A U41C, the self-cleavage was found to be 0.52. As to A18C U25C U31A U66A, the self-cleavage amounted to 0.12. In the case of G16U U58C A65G U78A it was 0.06. In the case of A18G G52A A64U G70A U74C U80A it was 0.2; in that of C17G U26C C50U G73A, 0.33. Then A18G A20U C38U A75G, with 0.07; and A18G U26C U49A G63U U67C, with 0.08; and A18G C23U A45G C62A U74C, with 0.15. Consider C17U U41C G46U A56G, for which the self-cleavage is 0.11. For C17G A21G U49A, the self-cleavage was found to be 0.08. For A18G C32U C62U, the self-cleavage turned out to be 0.15. Then A18G U41G A45C A56U, with 0.14; and A18G C29U G61A C62U, with 0.27; and A18G G30U U58C U60A C68A, with 0.25. Then A18G U41A A65G, with 0.13. Turning to A18G G19U C40U U60C, the self-cleavage is 0.06.

For C17U A28C A57G U72C U76A, the self-cleavage amounted to 0.11. In the case of C17A C32U U43C A57U U72C it was 0.06; in that of A18G C39A U74A, 0.13; in that of A18G A65G U80A, 0.35. As for A18C U49C C71A, the self-cleavage is 0.03. Then A18G U43A C62U, with 0.12.

As to A18G C27U U43C C81U, the self-cleavage came out at 0.08. In the case of A18G U26C U41C U49A it was 0.14; in that of A18G A20G A47G U49C A56G, 0.62.

As for A18G A20G U31C, the self-cleavage is 0.27. Regarding C17G C23U U25C G36C U41A U69C, the self-cleavage turned out to be 0.06. Then A18G U26A U67A U69A, with 0.15; and A18C U26C G42A, with 0.21; and A18G A35U C50U, with 0.12. In the case of A18C C40U G55C it was 0.14; in that of A18G C23U A57G U80C, 0.18. In the case of C17A A20G U31A A56U A77G it was 0.05; in that of A18G G24A C44A, 0.07.

For A18G A28G U31C U49C C71U, the self-cleavage came to 0.07. In the case of C17U U25C A28U U78C it was 0.18; in that of A18G C23A U41G A64G, 0.1; in that of A18G A20U U26C U41A C62U A64G, 0.31. In the case of A18G A20G A35G U80C it was 0.5.

As for C17G C32G U43C U48C, the self-cleavage stood at 0.19. Then A18G A20U C34U A45G, with 0.06; and C17A U26A U48A U60A U66C, with 0.15; and A18G U25C A57G U58C U69C A77U U78C, with 0.12. Then A18G G46A A57U U76C, with 0; and G16C A35G A45U A56G A65U U76C, with 0.12; and A18G C29G A65G, with 0.26. For the variant A18G A47U U48A U54C A56G U67C, the self-cleavage was determined as 0.13. Then A18G A28G U43A, with 0.27. Then A18G A47U U49C, with 0.09; and A18G A20G A45G U49A A56G, with 0.23; and A18G U26A C34G G36A, with 0.04. In the case of G16U C29U U41C it was 0.09. Consider A18G A45G G52A A56G A57G, for which the self-cleavage worked out at 0.12. In the case of A18G G30A A35G U54C A57U U66C U69C it was 0.12. In the case of C17U U43C U51C U72C it was 0.31; in that of G16U A18G A45G A77G, 0.23; in that of A18G A28G C40U U51C, 0.17. Then A18G U26C A47U U48A U54A, with 0.06; and A18G U25A U26C U31A U69A, with 0.24.

For the variant C17U A20G A56G A65G U69C, the self-cleavage amounted to 0.18. In the case of A18G A28G U69C A77G it was 0.94; in that of A18G U31C C32A A64G, 0.19.

As to A18G C34G U54C, the self-cleavage stood at 0.06.

Consider A18G A28G A45U U67C, for which the self-cleavage was found to be 0.11.

As to C17A U25C A28U A35G, the self-cleavage is 0.15. Then A18G A20C C39U U67C U78A, with 0.05; and G16U G36C U43G A47G U51C, with 0.16. Then A18G A28G U41A A45G U51A, with 0.16. With C17U C32A A64G, the self-cleavage was 0.07. Then A18G A28C U54C A75U, with 0.18. Then A18G A77U U80C, with 1.07; and C17U U41C U43A, with 0.51; and A18G A57G U60A A64U U74C, with 0.29. Then A18G U31C A35U G73A, with 0.05.

For the origin of these results see the RNAGym collection of RNA variant scans (doi:10.1093/nar/gkz1192).
